Data as given in patent US20190282663A1 (KEROS THERAPEUTICS, published 2019).

Tests used:
Assay in all cases: SPR (Biacore 3000), receptor captured on chip, ligand in solution
Activin B = target: T1, Activin B (UniProt P09529 293-407)
T1 sequence (looked up): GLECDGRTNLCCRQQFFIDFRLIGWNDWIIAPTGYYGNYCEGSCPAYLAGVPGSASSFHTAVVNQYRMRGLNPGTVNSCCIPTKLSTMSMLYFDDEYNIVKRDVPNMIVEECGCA

Activin A = target: T2, Activin A (UniProt P08476 311-426)
T2 sequence (looked up): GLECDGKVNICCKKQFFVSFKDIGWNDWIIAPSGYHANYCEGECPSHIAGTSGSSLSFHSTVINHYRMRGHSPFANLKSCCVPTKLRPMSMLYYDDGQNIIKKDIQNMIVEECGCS

BMP-9 = target: T3, BMP-9 (UniProt Q9UK05 320-429)
T3 construct: also called bone morphogenetic protein 9
T3 sequence (looked up): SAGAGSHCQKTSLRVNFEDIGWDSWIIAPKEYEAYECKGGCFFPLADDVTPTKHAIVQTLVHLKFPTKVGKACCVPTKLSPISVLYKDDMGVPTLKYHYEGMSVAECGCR

[1] = target: T4, growth differentiation factor 11 (GDF11) (UniProt O95390 299-407)
T4 sequence (looked up): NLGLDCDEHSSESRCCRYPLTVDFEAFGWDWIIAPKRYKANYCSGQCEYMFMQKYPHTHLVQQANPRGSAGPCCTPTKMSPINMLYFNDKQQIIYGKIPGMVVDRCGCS

Kd (Activin B): 0.373 nM
Kd (Activin A): 1 nM
Kd (BMP-9): 25 nM
Kd [1]: 0.081 nM
B1: ActRIIa (SEQ ID NO: 73) (receptor)
chain: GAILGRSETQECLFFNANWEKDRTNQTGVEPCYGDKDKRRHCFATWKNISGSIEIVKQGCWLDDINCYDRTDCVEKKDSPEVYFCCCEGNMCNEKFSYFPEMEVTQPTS
notes: Expressed in HEK293 cells, purified on Protein-A Sepharose, captured on the chip with anti-mouse antibodies; also called Human ActRIIa, extracellular portion; wild-type extracellular ActRIIa; not shown: Carrier and linker
